Where “and” joins values, the source holds several entries; their conditions need not be identical. Equal values may be shown once. Out of some 110,000 compounds screened, about 230 (0.21%) showed an effect of 50% or more. The list shows a part of the results.
The molecules below were run against DPAP1 (Plasmodium falciparum, UniProt Q8IIJ9) (assay: primary screen, percent inhibition; read by cleavage of a fluorogenic dipeptide substrate; higher = more effect of the substance).
Design: species or system P. falciparum D10 trophozoite lysates; single well
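Note: 30 min substrate incubation versus DMSO and 10 µM JCP410 controls.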

DPAP1, sequence (Q8IIJ9 whole entry, looked up): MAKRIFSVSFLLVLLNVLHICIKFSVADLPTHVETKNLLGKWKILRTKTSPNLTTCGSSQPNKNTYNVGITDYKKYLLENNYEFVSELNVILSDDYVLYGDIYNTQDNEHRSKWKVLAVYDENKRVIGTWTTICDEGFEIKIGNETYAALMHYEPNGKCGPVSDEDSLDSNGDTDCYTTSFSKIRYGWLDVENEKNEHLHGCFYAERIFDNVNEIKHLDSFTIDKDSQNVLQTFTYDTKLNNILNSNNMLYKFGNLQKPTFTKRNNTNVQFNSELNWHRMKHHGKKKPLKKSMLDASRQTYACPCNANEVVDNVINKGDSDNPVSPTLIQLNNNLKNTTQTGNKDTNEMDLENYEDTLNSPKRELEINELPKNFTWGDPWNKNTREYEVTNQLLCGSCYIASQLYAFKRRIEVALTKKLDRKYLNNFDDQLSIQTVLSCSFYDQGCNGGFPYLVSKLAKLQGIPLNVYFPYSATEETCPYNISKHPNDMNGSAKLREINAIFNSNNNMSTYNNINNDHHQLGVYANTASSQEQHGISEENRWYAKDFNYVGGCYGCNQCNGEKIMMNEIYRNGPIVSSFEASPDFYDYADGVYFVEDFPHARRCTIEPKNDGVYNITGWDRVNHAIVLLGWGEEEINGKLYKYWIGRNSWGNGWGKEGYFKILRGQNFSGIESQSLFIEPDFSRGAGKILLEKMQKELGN

Question: `O=C(O)C1CCCN1C(=O)c1cccc2ccccc12` (stereo not drawn) was tested. Which “% Inhibition @ 10 uM” value did it give?
Answer: 4.22%

Question: How did the “% Inhibition @ 10 uM” value turn out when `OC1=C2C(=Nc3ccccc3NC2c2cccnc2)CC(c2ccccc2Cl)C1` (stereo not drawn) was run?
Answer: 3.92%

Question: Which “% Inhibition @ 10 uM” value does the source give for `CC(=O)N1c2ccccc2N=C2CC(C)(C)CC(O)=C2C1c1ccc2c(c1)OCO2` (stereo not drawn) here?
Answer: -5.07%

Question: With `O=C(NC1=NCCS1)c1cccc(NC(=O)c2ccco2)c1` as the molecule, how does the “% Inhibition @ 10 uM” value read?
Answer: -16%

Question: Which “% Inhibition @ 10 uM” value does the source give for `C=CC[n+]1ccc(COC(=O)Nc2ccc(Cl)c(Cl)c2)cc1` here?
Answer: 1.02%

Question: For `O=C1CC(N2CCN(c3ccccn3)CC2)C(=O)N1CCc1ccccc1` (stereo not drawn), which “% Inhibition @ 10 uM” value is on record?
Answer: 1.76%

Question: How did the “% Inhibition @ 10 uM” value turn out when `CC(=O)Nc1ccc(S(=O)(=O)N2CCC(Cc3ccccc3)CC2)cc1` was run?
Answer: -0.712%

Question: `CCOC(=O)C1=CN(Cc2ccc(F)cc2)C=C(C(=O)OCC)C1c1ccc(C)s1` was tested. Which “% Inhibition @ 10 uM” value did it give?
Answer: -1.48%

Question: With `COc1cccc(S(=O)(=O)NCc2ccc(C(=O)NCc3ccccn3)cc2)c1` as the molecule, how does the “% Inhibition @ 10 uM” value read?
Answer: -3.37%

Question: `O=C(NC(CCc1nc2ccccc2[nH]1)C(=O)O)c1ccccc1` (stereo not drawn) was tested. Which “% Inhibition @ 10 uM” value did it give?
Answer: -6.68%

Question: How did the “% Inhibition @ 10 uM” value turn out when `N#CCNC(=O)[C@H](CC1CCCCC1)NC(=O)c1cc2ccccc2s1` was run?
Answer: -1.83%

Question: For `Cc1onc(-c2ccccc2)c1C(=O)N(Cc1ccccc1)Cc1ccccc1`, which “% Inhibition @ 10 uM” value is on record?
Answer: 3.94%

Question: `CC(C)CC(NS(=O)(=O)c1ccc2nc(O)c(O)nc2c1)C(=O)O` (stereo not drawn) was tested. Which “% Inhibition @ 10 uM” value did it give?
Answer: 4.96%

Question: With `CC(=O)Nc1ccccc1C(=O)Nc1ccc(C)cc1` as the molecule, how does the “% Inhibition @ 10 uM” value read?
Answer: -1.62%

Question: Which “% Inhibition @ 10 uM” value does the source give for `CCN1CCC(N(C)C2CCCCC2)CC1` here?
Answer: -9.95%

Question: `Cc1sc(NC(=O)c2cccc(Cn3cc(Br)cn3)c2)nc1-c1ccccc1` was tested. Which “% Inhibition @ 10 uM” value did it give?
Answer: -3.13%

Question: For `CCOC(=O)c1c(N)n(-c2cccc(S(N)(=O)=O)c2)c2nc3ccccc3nc12`, which “% Inhibition @ 10 uM” value is on record?
Answer: 3.71%

Question: For `Cc1nc2ccc(C(=O)N3CCSCC3)cc2s1`, which “% Inhibition @ 10 uM” value is on record?
Answer: -1.27%

Question: For `O=C(Nc1cccnc1Cl)c1cc(-c2ccc3c(c2)OCO3)on1`, which “% Inhibition @ 10 uM” value is on record?
Answer: -0.591%

Question: How did the “% Inhibition @ 10 uM” value turn out when `CCN1CCN(C(=O)c2cnn(-c3ccccc3Cl)c2NC(C)=O)CC1` was run?
Answer: 0.727%

Question: `COc1ccc(C(=O)N2CC(C)CC(C)C2)cc1OC` (stereo not drawn) was tested. Which “% Inhibition @ 10 uM” value did it give?
Answer: -8.33%

Question: `O=C(Nc1ccc(Br)cc1)c1cc(Cl)cc(Cl)c1O` was tested. Which “% Inhibition @ 10 uM” value did it give?
Answer: 2.73%

Question: With `CC1CN(C2=NC(=O)/C(=C/c3ccc(Cl)c(Cl)c3)S2)CC(C)O1` (stereo not drawn) as the molecule, how does the “% Inhibition @ 10 uM” value read?
Answer: -2.14%

Question: How did the “% Inhibition @ 10 uM” value turn out when `O=C(CSCc1cnn(-c2ccccc2)c1-n1cccc1)N1CCN(C2CCCCC2)CC1` was run?
Answer: 2.27%

Question: How did the “% Inhibition @ 10 uM” value turn out when `c1ccc(CNc2nc(N3CCOCC3)nc(N3CCOCC3)n2)cc1` was run?
Answer: -2.51%

Question: With `CCc1cccc(-n2nnc(-c3nsc(NC(=O)c4cc(OC)cc(OC)c4)n3)c2C)c1` as the molecule, how does the “% Inhibition @ 10 uM” value read?
Answer: 1.61%

Question: `Cc1ccc(C)c(OCC(=O)Nc2ccc(S(=O)(=O)N3CCOCC3)cc2)c1` was tested. Which “% Inhibition @ 10 uM” value did it give?
Answer: -3.43%

Question: How did the “% Inhibition @ 10 uM” value turn out when `Cc1nn(Cc2ccccc2)c(C)c1/C=C1\Sc2ccccc2C1=O` was run?
Answer: -9.33%

Question: How did the “% Inhibition @ 10 uM” value turn out when `N#CSCC(=O)N1c2ccccc2Sc2ccc(C(F)(F)F)cc21` was run?
Answer: 10.1%

Question: `CC(CNC(=O)C(C)n1c2ccccc2c2cnnc(O)c21)c1ccccc1` (stereo not drawn) was tested. Which “% Inhibition @ 10 uM” value did it give?
Answer: -2%

Question: How did the “% Inhibition @ 10 uM” value turn out when `O=C1CSC(c2ccc3c(c2)OCO3)c2c(-c3ccccc3)nn(-c3ccccc3)c2N1` (stereo not drawn) was run?
Answer: -3.28%

Question: How did the “% Inhibition @ 10 uM” value turn out when `O=C(c1ccccc1)N1CCN(C2CCC(c3ccccc3)CC2)CC1` (stereo not drawn) was run?
Answer: 2.05%

Question: Which “% Inhibition @ 10 uM” value does the source give for `COC(=O)C1=CN(C(C)C)C=C(C(=O)OC)C1c1cc(OC)ccc1OC` here?
Answer: 1.86%

Question: For `Cc1cc(C)cc(NS(=O)(=O)c2cc(Cl)ccc2Cl)c1`, which “% Inhibition @ 10 uM” value is on record?
Answer: 0.526%

Question: For `CCc1ccc(OCC(=O)N2CCOCC2)cc1`, which “% Inhibition @ 10 uM” value is on record?
Answer: 1.84%

Question: How did the “% Inhibition @ 10 uM” value turn out when `CCOc1ccc(OCc2ccc(C(=O)N3N=C(C(F)F)CC3(O)C(F)F)o2)cc1` (stereo not drawn) was run?
Answer: 1.87%

Question: Which “% Inhibition @ 10 uM” value does the source give for `CCn1c(SCC(=O)Nc2cccc(F)c2)nc2c1c(=O)n(C)c(=O)n2C` here?
Answer: -1.84%

Question: How did the “% Inhibition @ 10 uM” value turn out when `Cc1cc(=O)oc2cc(OCc3ccc(F)cc3)c(Cl)cc12` was run?
Answer: 3.06%

Question: Which “% Inhibition @ 10 uM” value does the source give for `CCOc1ccc(CSc2nc(C)cc(C)n2)cc1-n1nc2ccccc2n1` here?
Answer: 0.776%

Question: Which “% Inhibition @ 10 uM” value does the source give for `Cc1cc(S(=O)(=O)N2CCC(c3nnc(-c4ccccc4C)o3)CC2)ccc1F` here?
Answer: 0.66%

Question: `COc1cc(C2C(C(C)=O)=C(O)C(=O)N2c2ccc(Br)cc2)ccc1O` (stereo not drawn) was tested. Which “% Inhibition @ 10 uM” value did it give?
Answer: 6.79%

Question: For `CC(NC(=O)/C=C/C(=O)O)c1ccccc1` (stereo not drawn), which “% Inhibition @ 10 uM” value is on record?
Answer: 0.968% and -1.03%

Question: For `CC1(C)CC(=O)C2=C(C1)N=C(S)C(C#N)C2c1ccccc1[N+](=O)[O-]` (stereo not drawn), which “% Inhibition @ 10 uM” value is on record?
Answer: 20%

Question: With `Cc1c(C(=O)NCCCc2ccccc2)oc2ccc3c(c12)C(=O)CC(C)(C)O3` as the molecule, how does the “% Inhibition @ 10 uM” value read?
Answer: 1.72%

Question: With `CN1C(C)(C)CC(=NOC(=O)c2ccccc2)CC1(C)C` as the molecule, how does the “% Inhibition @ 10 uM” value read?
Answer: 0.685%

Question: For `COc1ccc(N2CCN(S(=O)(=O)c3cccc(C)c3)CC2)cc1`, which “% Inhibition @ 10 uM” value is on record?
Answer: -5.51%

Question: `O=C(O)CN(CC(=O)O)S(=O)(=O)c1ccccc1` was tested. Which “% Inhibition @ 10 uM” value did it give?
Answer: 2.06%

Question: Which “% Inhibition @ 10 uM” value does the source give for `CCOc1cc(C2c3c(oc4ccccc4c3=O)C(=O)N2c2nncs2)ccc1OCCC(C)C` (stereo not drawn) here?
Answer: 2.1%

Question: `COc1ccc(/C=C2\SC(=S)N(c3ccc([N+](=O)[O-])cc3)C2=O)cc1O` was tested. Which “% Inhibition @ 10 uM” value did it give?
Answer: 4.52%

Question: How did the “% Inhibition @ 10 uM” value turn out when `CC(C)CC(NC(N)=O)c1ccccc1` (stereo not drawn) was run?
Answer: -5.11%

Question: Which “% Inhibition @ 10 uM” value does the source give for `COC(=O)c1cn(-c2ccccc2)nc1-c1cccnc1` here?
Answer: -5.15%

Question: Which “% Inhibition @ 10 uM” value does the source give for `CCc1ccc(C(=O)CC2(O)C(=O)N(CCCC#N)c3ccccc32)cc1` (stereo not drawn) here?
Answer: -2.75%

Question: With `CN1CCC=C(Cc2nnc(O)c3ccccc23)C1` as the molecule, how does the “% Inhibition @ 10 uM” value read?
Answer: 2.73%

Question: How did the “% Inhibition @ 10 uM” value turn out when `N#CCNC(=O)[C@H](CS(=O)(=O)Cc1ccccc1)NC(=O)c1ccc2ccccc2c1` was run?
Answer: -1.5%

Question: With `O=C(Nc1ccc(-c2nc3ccccc3o2)cc1)c1cncc(Br)c1` as the molecule, how does the “% Inhibition @ 10 uM” value read?
Answer: 21.3%

Question: Which “% Inhibition @ 10 uM” value does the source give for `N#CC1=C(N)N2CCSC2=NC1(C(F)(F)F)C(F)(F)F` here?
Answer: -3.53%

Question: With `CCOc1ccc2nc(NC(=O)C(Cc3ccccc3)n3cccc3)sc2c1` (stereo not drawn) as the molecule, how does the “% Inhibition @ 10 uM” value read?
Answer: -4.21%

Question: With `CCOc1ccc(OCc2ccc(C(=O)Nc3ccc(Cl)cn3)o2)cc1` as the molecule, how does the “% Inhibition @ 10 uM” value read?
Answer: -0.822%

Question: With `O=C(O)c1ccc2c(c1)C(=O)N(c1cccc(N3C(=O)c4ccc(C(=O)O)cc4C3=O)c1)C2=O` as the molecule, how does the “% Inhibition @ 10 uM” value read?
Answer: 4.8%

Question: For `COc1ccc(NC(=O)Cc2ccccc2)c(OC)c1`, which “% Inhibition @ 10 uM” value is on record?
Answer: 0.135%

Question: Which “% Inhibition @ 10 uM” value does the source give for `O=C(c1ccc(S(=O)(=O)N2CCOCC2)cc1)N1CCCCC1` here?
Answer: -2.63%

Question: Which “% Inhibition @ 10 uM” value does the source give for `O=C1c2[nH]nc(-c3ccccc3O)c2C(c2ccccc2)N1CCCO` (stereo not drawn) here?
Answer: 0.366%

Question: With `COc1cccc(C2CC(c3cccs3)=NN2C(C)=O)c1OC` (stereo not drawn) as the molecule, how does the “% Inhibition @ 10 uM” value read?
Answer: 9.77%
